Results reported in patent US20120142701A1 (priority 2010, published 2012).

Molecular target: Influenza Nucleoprotein (Influenza A virus, UniProt P03466)
Conditions: pH 7

## nucleozin
  aggregation of NP (hydrodynamic radius): results in the aggregation of NP
  aggregation of NP (hydrodynamic radius) with added RNA: accelerates the aggregation of NP
